# “Also recorded” adds a separate entry of the source. At least one peptide structure holds a part that was inferred or is arguable (an end, a ring closure or a residue). Some compounds share one wording; it may come from a single statement. Residues, ends and D or L forms follow the SMILES beside them.
# What was measured:
# MAB AI-11 = assay: Competitive RIA, MAB AI-11 binding to Apo AI/HDL-coated wells; parameters: species or system mouse; details: FIG. 5 and FIG. 6
# Description: (§1) One hundred μl of PBS (0.15M NaCl, 0.01M NaPO4, pH 7.2) containing 10 μg/ml Apo AI/HDL were admixed to the wells of microtiter plates. The plates were maintained for 1 hour at 20° C. on a rotating platform to allow the Apo AI/HDL to adhere to the wells and form solid supports. After aspirating excess liquid from the wells, 200 μl of block solution (3% BSA, 3% NGS in PBS) was admixed to each well, and the wells were maintained for 30 minutes at 20° C. on a rotating platform. Subsequently, the blocking solution was removed by aspiration, and the wells were washed 3 times with SPRIA buffer.
# (§2) To each well was then admixed first with 50 μl of PBS containing 3% BSA and various concentrations of competitor antigen, i.e., Apo AI/HDL peptide, and, second, 50 μl of MAB AI-4 in the form of clarified ascites diluted 1:11.25×10^5 in PBS containing 3% BSA to form competitive immunoreaction admixtures. In control wells, either competing antigen or antibody was replaced by PBS containing 3% BSA.
# (§3) The immunoreaction admixtures were maintained about 16 hours at 4° C. on a rotating platform to permit formation of solid-phase immunoreaction products. After washing the wells as previously described, 100 μl of ^125 I-labeled goat anti-mouse Ig (^125 I-goat anti-mouse Ig diluted to 2×10^5 trichloracetic acid precipitable disintegrations per minute per 100 μl in PBS containing 3% BSA) were admixed to each well. The labeling immunoreaction admixtures so formed were maintained for 4 hours at 4° C. on a rotating platform. Subsequently, the wells were washed with SPRIA buffer as previously described, and the amount of ^125 I-labeled solid-phase immunoreaction product formed was determined in a gamma counter.
# The immunoreactivity of MAB AI-11 for native Apo AI/HDL and various synthetic polypeptides was examined by a competitive RIA as described in Example 10A. […] Other peptides were evaluated for their ability to immunoreact with AI-1l MAE in competitive RIAs described herein.
# [1] = tested on: monoclonal antibody AI-11; assay: Solid-phase polypeptide direct binding ELISA; parameters: species or system mouse; details: peptide coated at 50 μg/ml; 0.5 μg/ml HRP-conjugated AI-11
# Description: Apo AI polypeptides AI84-111, AI85-111, AI90-111, AI93-111, AI94-111, AI-94-125, AI96-111, AI99-111, and AI99-114 were tested for immunoreactivity with monoclonal antibody AI-11 in a direct binding ELISA. In the assay, 50 μg/ml of each polypeptide was dissolved in PBS to form a peptide coating solution, of which 150 μl was admixed into the wells of a flexible polyvinyl chloride microtiter plate (Immulon). The wells were then maintained about 16 to 20 at 4° C. to permit the peptide to absorb onto (coat) the walls of the wells. After removing the peptide coating solution by shaking, the wells were washed once with 350 μl of rinsing buffer (PBS containing 1 g/l BSA, 0.5 ml/l Tween 20, and 2 μl/1 aprotinin). Excess protein binding sites were blocked by admixing 200 μl of blocking buffer (PBS containing 3% BSA) into each well, maintaining the wells for 1 hour at 37° C., removing the blocking buffer by shaking, and then washing the wells 3 times as previously described. The plate was then dried for 1 hour at 37° C. followed by addition of 100 μl of PBS containing 0.5 μg/ml horseradish peroxidase conjugated AI-11 antibody to form a solid-liquid phase immunoreaction admixture. The resulting solid-liquid phase immunoreaction admixture was maintained at 20° C. for 1 hour to permit formation of a solid-phase polypeptide-containing immunoreaction product. The wells were then washed 3 times with rinsing buffer to remove unbound antibody.
# The amount of immunoreaction product present in the solid phase was then determined by admixing two hundred microliters of OPD substrate into each well to form a developing-reaction admixture. The admixture was maintained for 30 minutes at about 20° C. Subsequently, 50 μl of 4N H2 SO4 were admixed into each well to stop the developing-reaction, and the resulting solution was assayed for absorbance at 450 nanometers using a microtiter plate reader (Dynatech) to detect the amount of formed immunoreaction product.
# MAB AI-4 = assay: Competitive RIA, MAB AI-4 binding to Apo AI/HDL-coated wells; parameters: species or system mouse; details: FIG. 3 and FIG. 4
# Description: The immunoreactivity of MAB AI-4 for native Apo AI/HDL and various synthetic polypeptides was examined by a competitive RIA performed as follows:
# as §1, §2, §3
# The ability of MAB AI-4 to immunoreact with Apo AI/HDL was compared by using Apo AI/HDL and various synthetic peptides as competitors in the above-described RIA. B/Bo represents corrected CPMs which are plotted against increasing concentrations of competition in μg/ml. B/Bo values are determined in the following formula: [formula] where 0% CPM is a measure of non-specific background based on CPM obtained in RIAs where wells coated with Apo AI/HDL are reacted with the labeled secondary antibody in the absence of primary antibody and competitor, and where 100% CPM is a measure of the maximum non-competed binding of primary antibody to the substrate coated to the wells. The more efficiently a competitor binds to the primary antibody, the lower the B/Bo values.
# MAB AI-18 = details: competitive RIA, as described in U.S. Pat. No. 5,055,396; cited from earlier work
SMILES,"immunoreactivity with MAB AI-11, competition of binding to Apo AI/HDL (MAB AI-11)",immunoreactivity with monoclonal antibody AI-11 in direct binding ELISA [1],"immunoreactivity with MAB AI-4, competition of binding to Apo AI/HDL (MAB AI-4)",immunoreactivity of MAB AI-18 for peptide (MAB AI-18)
CSCC[C@H](NC(=O)[C@@H](N)CCC(=O)O)C(=O)N[C@@H](CO)C(=O)N[C@@H](CCCCN)C(=O)N[C@@H](CC(=O)O)C(=O)N[C@@H](CC(C)C)C(=O)N[C@@H](CCC(=O)O)C(=O)N[C@@H](CCC(=O)O)C(=O)N[C@H](C(=O)N[C@@H](CCCCN)C(=O)N[C@@H](C)C(=O)N[C@@H](CCCCN)C(=O)N[C@H](C(=O)N[C@@H](CCC(N)=O)C(=O)N1CCC[C@H]1C(=O)N[C@@H](Cc1ccc(O)cc1)C(=O)N[C@@H](CC(C)C)C(=O)N[C@@H](CC(=O)O)C(=O)N[C@@H](CC(=O)O)C(=O)N[C@@H](Cc1ccccc1)C(=O)N[C@@H](CCC(N)=O)C(=O)N[C@@H](CCCCN)C(=O)N[C@@H](CCCCN)C(=O)N[C@@H](Cc1c[nH]c2ccccc12)C(=O)N[C@@H](CCC(N)=O)C(=O)N[C@@H](CCC(=O)O)C(=O)N[C@@H](CCC(=O)O)C(=O)O)C(C)C)C(C)C [AI85-111] (H-EMSKDLEEVKAKVQPYLDDFQKKWQEE-OH),immunoreact,specifically immunoreactive,,
"CC(C)C[C@H](NC(=O)[C@H](Cc1ccc(O)cc1)NC(=O)[C@@H]1CCCN1C(=O)[C@H](CCC(N)=O)NC(=O)[C@@H](NC(=O)[C@H](CCCCN)NC(=O)[C@H](C)NC(=O)[C@H](CCCCN)NC(=O)[C@@H](NC(=O)[C@H](CCC(=O)O)NC(=O)[C@H](CCC(=O)O)NC(=O)[C@@H](N)CC(C)C)C(C)C)C(C)C)C(=O)N[C@@H](CC(=O)O)C(=O)N[C@@H](CC(=O)O)C(=O)N[C@@H](Cc1ccccc1)C(=O)N[C@@H](CCC(N)=O)C(=O)O [AI90-105, LEEVKAKVQPYLDDFQ] (H-LEEVKAKVQPYLDDFQ-OH)",do not immunoreact,,did not react,equivalent immunoreactivites
CC(C)C[C@H](NC(=O)[C@H](Cc1ccc(O)cc1)NC(=O)[C@@H]1CCCN1C(=O)[C@H](CCC(N)=O)NC(=O)[C@@H](NC(=O)[C@H](CCCCN)NC(=O)[C@H](C)NC(=O)[C@H](CCCCN)NC(=O)[C@@H](NC(=O)[C@H](CCC(=O)O)NC(=O)[C@H](CCC(=O)O)NC(=O)[C@@H](N)CC(C)C)C(C)C)C(C)C)C(=O)N[C@@H](CC(=O)O)C(=O)N[C@@H](CC(=O)O)C(=O)N[C@@H](Cc1ccccc1)C(=O)N[C@@H](CCC(N)=O)C(=O)N[C@@H](CCCCN)C(=O)N[C@@H](CCCCN)C(=O)N[C@@H](Cc1c[nH]c2ccccc12)C(=O)N[C@@H](CCC(N)=O)C(=O)N[C@@H](CCC(=O)O)C(=O)N[C@@H](CCC(=O)O)C(=O)O [AI90-111] (H-LEEVKAKVQPYLDDFQKKWQEE-OH),competitive inhibitors; also recorded: competitively inhibit; also recorded: immunoreact,recognized by the antibody but with decreased specificity,not immunoreactive; also recorded: not competitive inhibitors,equivalent immunoreactivites
"CC(C)C[C@H](NC(=O)[C@H](Cc1ccc(O)cc1)NC(=O)[C@@H]1CCCN1C(=O)[C@H](CCC(N)=O)NC(=O)[C@@H](NC(=O)[C@H](CCCCN)NC(=O)[C@H](C)N)C(C)C)C(=O)N[C@@H](CC(=O)O)C(=O)N[C@@H](CC(=O)O)C(=O)N[C@@H](Cc1ccccc1)C(=O)N[C@@H](CCC(N)=O)C(=O)O [AI95-105, AKVQPYLDDFQ] (H-AKVQPYLDDFQ-OH)",do not immunoreact,,did not react,equivalent immunoreactivites
"CC(C)C[C@H](NC(=O)[C@H](Cc1ccc(O)cc1)NC(=O)[C@@H]1CCCN1C(=O)[C@H](CCC(N)=O)NC(=O)[C@@H](NC(=O)[C@H](CCCCN)NC(=O)[C@H](C)NC(=O)[C@H](CCCCN)NC(=O)[C@@H](N)C(C)C)C(C)C)C(=O)N[C@@H](CC(=O)O)C(=O)N[C@@H](CC(=O)O)C(=O)N[C@@H](Cc1ccccc1)C(=O)N[C@@H](CCC(N)=O)C(=O)N[C@@H](CCCCN)C(=O)N[C@@H](CCCCN)C(=O)N[C@@H](Cc1c[nH]c2ccccc12)C(=O)N[C@@H](CCC(N)=O)C(=O)N[C@@H](CCC(=O)O)C(=O)N[C@@H](CCC(=O)O)C(=O)O [AI93-111, VKAKVQPYLDDFQKKWQEE] (H-VKAKVQPYLDDFQKKWQEE-OH)",competitive inhibitors; also recorded: competitively inhibit; also recorded: immunoreact,recognized by the antibody but with decreased specificity,not immunoreactive; also recorded: not competitive inhibitors,
"CC(C)C[C@H](NC(=O)[C@H](CC(=O)O)NC(=O)[C@H](CCCCN)NC(=O)[C@@H](N)CO)C(=O)N[C@@H](CCC(=O)O)C(=O)N[C@@H](CCC(=O)O)C(=O)N[C@H](C(=O)N[C@@H](CCCCN)C(=O)N[C@@H](C)C(=O)N[C@@H](CCCCN)C(=O)N[C@H](C(=O)N[C@@H](CCC(N)=O)C(=O)N1CCC[C@H]1C(=O)N[C@@H](Cc1ccc(O)cc1)C(=O)N[C@@H](CC(C)C)C(=O)N[C@@H](CC(=O)O)C(=O)N[C@@H](CC(=O)O)C(=O)N[C@@H](Cc1ccccc1)C(=O)N[C@@H](CCC(N)=O)C(=O)O)C(C)C)C(C)C [AI87-105, SKDLEEVKAKVQPYLDDFQ] (H-SKDLEEVKAKVQPYLDDFQ-OH)",do not immunoreact,,did not react,equivalent immunoreactivites

# Reference: patent US5814467A, “APO AI polypeptides, diagnostic methods and systems for quantifying APO AI, and therapeutic methods” (The Scripps Research Institute, priority 1994, dated 1998)
